Laboratory results taken from the supplement of paper PMC7826260.
The other results are listed elsewhere or left out. Cleavage of a single-stranded DNA pool by Rep nickase domains was read by sequencing for 1 h at 37 °C with 3 µM enzyme; only the middle of the 90-letter strands is printed. Values are log2 of uncut reads against the no-enzyme pool; strong cutting gives strongly negative numbers. There is no active / inactive call. Reads are scaled to the total; where an enzyme cuts many sequences, the uncut ones exceed 0.

Key:
Assay in all cases: uncleaved DNA left, log2 of reads against the no-enzyme library (log2 ratio); higher = less cleavage (more negative = more Rep cleavage of the k-mer); sequences stand for … in CTCGTCCG…ACCGGAGA
[1] = system: T1, Rep nickase domain of Muscovy duck circovirus
T1 sequence (residues 1-111, tag not shown): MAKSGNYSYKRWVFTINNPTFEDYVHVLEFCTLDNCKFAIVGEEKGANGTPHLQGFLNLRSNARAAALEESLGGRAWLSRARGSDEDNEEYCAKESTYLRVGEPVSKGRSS
Procedure: (§1)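 A pool of 90-nt single-stranded DNAs with seven random bases just before the constant AC of the nick site (name = the seven bases) was cut by 3 µM recombinant His6-SUMO-tagged Rep nickase domain (300 nM DNA, 50 mM HEPES pH 8.0, 50 mM NaCl, 1 mM MnCl2, 1 h, 37 °C, three replicates). Uncut DNA was amplified and sequenced.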

[2] = system: T2, Rep nickase domain of banana bunchy top virus
T2 sequence (residues 1-94, tag not shown): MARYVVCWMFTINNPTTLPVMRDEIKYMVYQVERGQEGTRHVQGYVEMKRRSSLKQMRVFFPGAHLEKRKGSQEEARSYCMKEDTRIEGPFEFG
Procedure: as §1

[3] = system: T3, Rep nickase domain of cabbage leaf curl virus
T3 sequence (residues 1-116, tag not shown): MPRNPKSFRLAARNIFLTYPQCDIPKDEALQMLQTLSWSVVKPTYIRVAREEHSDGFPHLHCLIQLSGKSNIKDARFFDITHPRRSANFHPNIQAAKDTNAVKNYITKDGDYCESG
Procedure: as §1

[4] = system: T4, Rep nickase domain of chickpea chlorotic dwarf virus
T4 sequence (residues 1-124, tag not shown): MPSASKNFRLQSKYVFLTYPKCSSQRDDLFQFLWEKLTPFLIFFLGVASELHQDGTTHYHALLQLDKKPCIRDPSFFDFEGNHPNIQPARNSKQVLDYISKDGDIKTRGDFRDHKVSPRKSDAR
Procedure: as §1

[5] = system: T5, Rep nickase domain of faba bean necrotic yellows virus
T5 sequence (residues 1-98, tag not shown): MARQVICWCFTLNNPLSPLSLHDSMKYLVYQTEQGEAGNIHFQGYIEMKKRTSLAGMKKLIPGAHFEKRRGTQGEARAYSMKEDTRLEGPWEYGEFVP
Procedure: as §1

[6] = system: T6, Rep nickase domain of maize striate mosaic virus
T6 sequence (residues 1-117, tag not shown): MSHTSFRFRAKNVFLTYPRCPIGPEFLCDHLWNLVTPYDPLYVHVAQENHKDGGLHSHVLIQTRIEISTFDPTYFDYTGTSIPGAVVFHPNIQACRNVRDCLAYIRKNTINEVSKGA
Procedure: as §1

[7] = system: T7, Rep nickase domain of porcine circovirus 2
T7 sequence (residues 2-116, tag not shown): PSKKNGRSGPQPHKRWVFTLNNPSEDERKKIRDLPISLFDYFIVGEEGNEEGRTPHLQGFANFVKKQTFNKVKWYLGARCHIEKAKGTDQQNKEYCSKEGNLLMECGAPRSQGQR
Procedure: as §1

[8] = system: T8, Rep nickase domain of tomato yellow leaf curl virus
T8 sequence (residues 1-136, tag not shown): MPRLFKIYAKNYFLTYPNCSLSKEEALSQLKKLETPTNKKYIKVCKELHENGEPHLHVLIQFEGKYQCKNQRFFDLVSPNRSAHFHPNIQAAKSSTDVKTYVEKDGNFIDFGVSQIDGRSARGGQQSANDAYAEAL
Procedure: as §1

[9] = system: T9, Rep nickase domain of wheat dwarf virus
T9 sequence (residues 1-137, tag not shown): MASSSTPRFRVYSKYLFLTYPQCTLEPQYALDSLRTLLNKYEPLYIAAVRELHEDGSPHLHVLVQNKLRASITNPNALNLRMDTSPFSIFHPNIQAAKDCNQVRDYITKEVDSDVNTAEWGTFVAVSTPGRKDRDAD
Procedure: as §1

| Sequence | uncleaved DNA left (log2) [1] | uncleaved DNA left (log2) [2] | uncleaved DNA left (log2) [3] | uncleaved DNA left (log2) [4] | uncleaved DNA left (log2) [5] | uncleaved DNA left (log2) [6] | uncleaved DNA left (log2) [7] | uncleaved DNA left (log2) [8] | uncleaved DNA left (log2) [9] |
| --- | --- | --- | --- | --- | --- | --- | --- | --- | --- |
| CGGTAAT | -0.626 | -0.113 | 0.317 | 0.233 | -0.235 | 0.969 | -2.58 | -0.015 | 0.0677 |
| TCTGTCC | 0.066 | -0.0303 | 0.156 | 0.0186 | 0.0389 | 0.178 | 0.0261 | 0.0287 | -0.0628 |
| GCAACAC | 0.0177 | -0.0055 | 0.0251 | 0.0785 | 0.0351 | -0.108 | 0.0376 | 0.0392 | 0.00379 |
| TTTTTCG | 0.119 | -0.012 | -0.659 | 0.0429 | 0.0977 | -0.919 | 0.208 | 0.0461 | 0.0604 |
| TTACCAC | -0.041 | -0.00114 | -0.0502 | -2.08 | -0.0249 | -0.374 | -1.18 | -0.0146 | -0.0889 |
| TTTAAGA | 0.128 | 0.0249 | 0.0535 | -0.0576 | 0.00594 | -0.868 | 0.137 | 0.0589 | 0.0755 |
| CTCTCAT | 0.00264 | 0.0871 | 0.193 | -0.811 | 0.137 | -0.407 | -0.416 | 0.0834 | 0.138 |
| AAGAGAT | 0.051 | 0.0415 | 0.26 | 1.69 | 0.134 | 1.81 | 0.0448 | -0.137 | 0.0455 |
| CGGTGCA | 0.0349 | -0.0252 | -0.111 | 0.167 | 0.0187 | -0.258 | 0.0112 | 0.0165 | -0.0265 |
| ATTCAGT | -0.65 | -0.364 | -0.376 | -0.947 | -0.0889 | -1.22 | -2.46 | -0.135 | -0.12 |
| ATAACAT | -0.016 | 0.136 | -0.307 | -0.544 | -0.0192 | 0.217 | 0.136 | 0.0817 | 0.0533 |
| GGTCGTC | 0.0974 | 0.0425 | 0.513 | 1.12 | -0.0546 | 1.67 | 0.0431 | -0.023 | 0.0642 |
| GGAACAA | 0.033 | 0.0549 | 0.831 | 2 | -0.0685 | 2.15 | 0.146 | -0.0271 | 0.086 |
| CAGCCAG | -0.0312 | -0.284 | -0.894 | -0.59 | -0.104 | -0.993 | -0.0814 | -0.11 | -0.151 |
| AGTCCGG | -0.023 | -0.0267 | 0.333 | 1.09 | -0.0521 | 1.24 | 0.085 | 0.0214 | 0.00668 |
| CAGGGGA | 0.0931 | 0.0817 | 0.61 | 1.04 | 0.11 | 1.5 | 0.208 | 0.0141 | 0.0589 |
| TGGCGTA | 0.0436 | 0.039 | -0.43 | -0.445 | -0.0838 | -0.734 | 0.00213 | 0.0336 | -0.183 |
| CTTACAG | 0.0648 | 0.0577 | -0.963 | -2.12 | 0.0509 | -1.07 | 0.152 | 0.122 | -0.083 |
| CTATCGC | -0.0821 | -0.125 | -0.64 | -0.91 | -0.00174 | -1.09 | -0.0268 | -0.097 | -0.187 |
| AGATTTA | -0.123 | 0.0301 | 0.117 | -1.03 | 0.0695 | -0.048 | -0.583 | 0.028 | 0.0546 |
| GACACTG | 0.082 | 0.0758 | 0.0319 | 0.599 | -0.0437 | 0.924 | 0.1 | 0.0249 | 0.0799 |
| GGCAAGA | -0.000714 | 0.0476 | 0.575 | 1.36 | 0.123 | 1.61 | 0.103 | 0.0572 | 0.126 |
| GGTAAGC | 0.0146 | 0.0335 | 0.675 | 1.51 | 0.0364 | 1.75 | 0.18 | 0.045 | -0.00525 |
| CACGGAA | -0.0509 | 0.216 | 0.301 | 0.749 | 0.157 | 0.87 | 0.175 | 0.114 | 0.0989 |
| CGTGAGG | 0.112 | 0.145 | 0.432 | 1.08 | 0.186 | 0.81 | 0.189 | -0.0458 | 0.0779 |
| AAAAAAA | 0.0102 | 0.114 | 0.0655 | -0.808 | 0.143 | -0.636 | 0.108 | -0.0325 | 0.0589 |
| TCGACGA | -0.0885 | -0.0121 | -0.0112 | 0.265 | -0.098 | 0.314 | -0.000991 | 0.0161 | 0.0515 |
| TGCGACA | 0.0916 | 0.0628 | 0.0152 | 0.567 | -0.0125 | 1.18 | 0.0803 | 0.131 | -0.00762 |
| GTCGACC | 0.116 | 0.0936 | 0.245 | 0.701 | 0.0636 | 0.406 | -0.0324 | 0.16 | 0.0544 |
| CGTGCTA | 0.0857 | 0.106 | 0.0398 | 0.0957 | 0.134 | 0.235 | -0.0924 | -0.00508 | -0.0404 |
